# Assay results taken from the supplement of paper PMC8728848.
# The list shows a part of the results.
# Tests used:
# Experiment in all cases: glycan array binding signal (z-score within array); higher = stronger binding
# Conditions in all cases: glycan notation: IUPAC condensed, linker removed
# [1] = target: GalNAc(b1-4)GlcNAc(b1-2)Man
# Outline: (§1)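 Glycan array binding is given as a within-array Z-score, which can be read as non-binding when negative. The arrays, 3228 of them, came from the Consortium for Functional Glycomics database and were retained only where the protein sequence was available. Z-scores were averaged across arrays of the same protein sequence at different concentrations or buffers and across linkers.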
# [2] = target: GalNAc(b1-4)GlcNAc(b1-2)Man(a1-3)[GalNAc(b1-4)GlcNAc(b1-2)Man(a1-6)]Man(b1-4)GlcNAc(b1-4)GlcNAc
# Outline: as §1
# [3] = target: GalNAc(b1-4)GlcNAc(b1-3)GalNAc(b1-4)GlcNAc
# Outline: as §1
# [4] = target: GalNAc(b1-4)GlcNAc6S
# Outline: as §1
# [5] = target: GalNAc(b1-6)GalNAc
# Outline: as §1
# [6] = target: GalNAc3S(b1-4)GlcNAc
# Outline: as §1
# [7] = target: GalNAc3S(b1-4)GlcNAc3S
# Outline: as §1
# [8] = target: GalNAc3S(b1-4)[Fuc(a1-3)]GlcNAc
# Outline: as §1
# [9] = target: GalNAc4S6S(b1-4)GlcNAc
# Outline: as §1
# [10] = target: GalNAc6S(b1-4)GlcNAc
# Outline: as §1
# [11] = target: Glc(a1-4)Glc
# Outline: as §1
# [12] = target: Glc(a1-4)Glc(a1-4)Glc(a1-4)Glc
# Outline: as §1
# [13] = target: Glc(a1-6)Glc(a1-6)Glc
# Outline: as §1
# [14] = target: Glc(a1-6)Glc(a1-6)Glc(a1-6)Glc
# Outline: as §1
# [15] = target: Glc(b1-4)Glc
# Outline: as §1
# [16] = target: Glc(b1-6)Glc
# Outline: as §1
# [17] = target: GlcA(b1-3)Gal
# Outline: as §1
# [18] = target: GlcA(b1-3)GlcNAc
# Outline: as §1
# [19] = target: GlcA(b1-6)Gal
# Outline: as §1
# [20] = target: GlcA3S(b1-3)Gal(b1-4)GlcNAc(b1-2)Man
# Outline: as §1
# [21] = target: GlcA3S(b1-3)Gal(b1-4)GlcNAc(b1-3)Gal(b1-4)Glc
# Outline: as §1
# [22] = target: GlcNAc(a1-3)Gal(b1-4)GlcNAc
# Outline: as §1
# [23] = target: GlcNAc(a1-4)Gal(b1-3)GlcNAc
# Outline: as §1
# [24] = target: GlcNAc(a1-4)Gal(b1-4)GalNAc
# Outline: as §1
# [25] = target: GlcNAc(a1-4)Gal(b1-4)GlcNAc
# Outline: as §1
# [26] = target: GlcNAc(a1-4)Gal(b1-4)GlcNAc(b1-3)Gal(b1-4)Glc
# Outline: as §1
# [27] = target: GlcNAc(a1-4)Gal(b1-4)GlcNAc(b1-3)Gal(b1-4)GlcNAc
# Outline: as §1
# [28] = target: GlcNAc(a1-4)Gal(b1-4)GlcNAc(b1-3)Gal(b1-4)GlcNAc(b1-3)Gal(b1-4)GlcNAc
# Outline: as §1
# [29] = target: GlcNAc(a1-4)Gal(b1-4)GlcNAc(b1-3)Gal(b1-4)[Fuc(a1-3)]GlcNAc(b1-3)Gal(b1-4)[Fuc(a1-3)]GlcNAc
# Outline: as §1
# [30] = target: GlcNAc(a1-6)Gal(b1-4)GlcNAc
# Outline: as §1
# [31] = target: GlcNAc(b1-2)Gal(b1-3)GalNAc
# Outline: as §1
# [32] = target: GlcNAc(b1-2)Man(a1-3)[GlcNAc(b1-2)Man(a1-6)]Man(b1-4)GlcNAc(b1-4)GlcNAc
# Outline: as §1
# [33] = target: GlcNAc(b1-2)Man(a1-3)[GlcNAc(b1-2)Man(a1-6)]Man(b1-4)GlcNAc(b1-4)[Fuc(a1-6)]GlcNAc
# Outline: as §1
# [34] = target: GlcNAc(b1-2)Man(a1-3)[GlcNAc(b1-4)][GlcNAc(b1-2)Man(a1-6)]Man(b1-4)GlcNAc(b1-4)GlcNAc
# Outline: as §1
# [35] = target: GlcNAc(b1-2)Man(a1-3)[GlcNAc(b1-4)][GlcNAc(b1-2)Man(a1-6)]Man(b1-4)GlcNAc(b1-4)[Fuc(a1-6)]GlcNAc
# Outline: as §1
# [36] = target: GlcNAc(b1-2)[GlcNAc(b1-4)]Man(a1-3)[GlcNAc(b1-2)Man(a1-6)]Man(b1-4)GlcNAc(b1-4)GlcNAc
# Outline: as §1
# [37] = target: GlcNAc(b1-2)[GlcNAc(b1-4)]Man(a1-3)[GlcNAc(b1-4)][GlcNAc(b1-2)Man(a1-6)]Man(b1-4)GlcNAc(b1-4)GlcNAc
# Outline: as §1
binder,measurement,setting,value
SP16665A-bot-344-23-344 (Bacteroides ovatus) (protein) SDNEFPDFDYQTVYFANQYGLRTIELGESEFVDNTLDNQHKMVIKAAWGGGYTNRNNVVINFKVDESLCDNLYFKDTDQPLVPMPASYYTLASDRIAIPKGQIMAGVEVQLTDDFFADEKSISENYVIPLLMTNVQGADSILQGKPVVENPVLTNAGDWSILPQNFVLYAVKYVNPWHGEYLRRGIDHATVAGTSKDIIRHEQFVENDEVVNISTKSMKDNLLTLKTKDESGKDISYTVRLSFAEDGSCTVHSGSQNVVVSGSGKFVSKGEKNSLGGKDRNAIYLDYTVNLTDNNIQLATKDTLVLRTRNVYGGKSLEVVRK,glycan array binding signal (z-score),[1],-0.103
same,glycan array binding signal (z-score),[2],1.54
same,glycan array binding signal (z-score),[3],0
same,glycan array binding signal (z-score),[4],-0.085
same,glycan array binding signal (z-score),[5],-0.485
same,glycan array binding signal (z-score),[6],-0.022
same,glycan array binding signal (z-score),[7],-0.114
same,glycan array binding signal (z-score),[8],-0.125
same,glycan array binding signal (z-score),[9],-0.366
same,glycan array binding signal (z-score),[10],-0.368
same,glycan array binding signal (z-score),[11],-0.119
same,glycan array binding signal (z-score),[12],-0.416
same,glycan array binding signal (z-score),[13],-0.006
same,glycan array binding signal (z-score),[14],0.999
same,glycan array binding signal (z-score),[15],-0.218
same,glycan array binding signal (z-score),[16],-0.042
same,glycan array binding signal (z-score),[17],0.164
same,glycan array binding signal (z-score),[18],-0.486
same,glycan array binding signal (z-score),[19],0.866
same,glycan array binding signal (z-score),[20],0.245
same,glycan array binding signal (z-score),[21],-0.574
same,glycan array binding signal (z-score),[22],0.267
same,glycan array binding signal (z-score),[23],-0.025
same,glycan array binding signal (z-score),[24],0.024
same,glycan array binding signal (z-score),[25],-0.275
same,glycan array binding signal (z-score),[26],0.185
same,glycan array binding signal (z-score),[27],-0.188
same,glycan array binding signal (z-score),[28],-0.27
same,glycan array binding signal (z-score),[29],0.595
same,glycan array binding signal (z-score),[30],-0.122
same,glycan array binding signal (z-score),[31],0.906
same,glycan array binding signal (z-score),[32],-0.386
same,glycan array binding signal (z-score),[33],0.166
same,glycan array binding signal (z-score),[34],-0.365
same,glycan array binding signal (z-score),[35],-0.474
same,glycan array binding signal (z-score),[36],-0.083
same,glycan array binding signal (z-score),[37],1.11
